Reference: the supplement of paper PMC3334620
Whole data set: some 33,000 sequences, median “E-score (-0.5 to 0.5)” near -0.056, cut for the highest 2% near 0.38. The list shows a part of the results.

These sequences were tested against Stb4 (UniProt P50104) (assay: PBM E-score (8-mer binding enrichment) (E-score (-0.5 to 0.5)); higher = stronger / more preferred TF binding; most listed sequences are background and not binding sites). Settings: protein concentration: 200 nM; construct: GST-DNA-binding domain.
Outline: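 GST-tagged yeast TFs (full-length or DNA-binding domain) were made by PURExpress in vitro transcription/translation and applied at about 100-200 nM to universal all-10-mer Agilent arrays. The arrays were made double-stranded by primer extension, on fresh or once-stripped slides. Bound protein was detected with fluorescent anti-GST, and scans were normalised with masliner. Each ungapped eight-base word, pooled with its reverse complement, received an E-score (modified Wilcoxon-Mann-Whitney statistic) from the Universal PBM Analysis Suite.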

Sequence | PBM E-score
AATAACAA | -0.02
ATTGACCG | 0.0389
CCCAGATA | -0.158
ATCTTATA | -0.0751
ACCATTCA | -0.293
ACAGCCGC | 0.105
CAACGCGG | 0.16
TCGACACA | -0.0789
ATAGAGTA | -0.167
GGTGCGAA | 0.0551
GGTTCAAC | -0.0243
AAGATAGT | 0.0875
GAACACGA | -0.0146
ACAAGCCG | 0.132
GGGGCGTA | -0.0369
CACTACCG | 0.0779
CCGGCTGA | 0.265
ACTTTGTC | -0.151
CCAGCTCA | -0.219
ATGACCCA | -0.283
CCCATAGC | -0.0731
CTATATTA | -0.0981

Sequence | PBM E-score
ATTGTAGG | -0.0958
CCCTGGAG | -0.316
AGGGGACA | -0.0901
CCAAATTC | -0.00753
CCCCCGTA | -0.267
GTCGGGAA | 0.377
TACTTCAA | -0.1
CTACTGAA | -0.152
CGGGCAAG | 0.106
CCTACCTC | -0.136
CATGTCTC | 0.106
CAAGGTAC | -0.233
CGTCTGAG | -0.171
ATAATTGC | -0.0283
CAACGTAA | -0.32
CGATAAGA | 0.0405
AGAGTTGG | -0.25
GGTGGCAA | -0.193
ATACGTAC | -0.0684
ATTACAGA | 0.0536
AAGAAGTG | 0.107
CGTTCATC | 0.0906

Sequence | PBM E-score
GACTTCTA | -0.19
AGGCAGAC | -0.1
ACTCGACT | -0.293
CCTAAGTC | -0.0864
AGTGAAAT | -0.152
GAGCCCAC | 0.0434
CCTGAACA | -0.0529
ACGGTGGA | -0.132
CTGGCCTC | 0.0578
CCTCTAAG | -0.248
GGGCGTAA | 0.0334
CCCTGAGC | -0.0704
ACTTCACC | 0.0769
AGCTTATA | -0.114
CATTGGAA | -0.16
ACCATCAG | 0.0151
CAAAGTAG | -0.128
AATCTCCA | -0.184
CGGGGGAC | 0.114
ACTATAGG | -0.264
GGCCTCTA | -0.341
GAGATAGA | -0.0353

Sequence | PBM E-score
TCCATGGA | 0.0285
AAATGCAC | 0.121
TATGCCCA | -0.104
ATCAAGTG | -0.117
TAGTGTAA | -0.149
CCATATTA | -0.136
AACTTCAG | -0.0741
AGGAGTTC | -0.132
GTGATTGA | -0.028
CGCAAACC | -0.0671
GGTTGAAA | 0.0435
AAGTGTAC | -0.141
AAACCCGA | 0.403
ACCTGCTG | -0.0476
AAGGAAGA | -0.126
CCCATGTA | -0.099
CGCGAGAC | -0.0463
AGGCATGC | -0.033
ATTGAGGA | -0.116
AAGGGTGG | -0.192
